# PubChem BioAssay AID1508642 (National Center for Advancing Translational Sciences (NCATS), 2021)
# In all, about 43,000 compounds went through this assay and about 200 (0.47%) were called active. Inconclusive results (about 12%) are left out. Calls follow the shape of the dose curve; as a rule, active = well fitted cell-killing curve with a large enough effect; inconclusive = small, poorly fitted or top-dose-only effect, or effect the other way; inactive = flat fitted curve, though single readings scatter. Some of the results follow.
# Assay: Cell viability qHTS assay in S16 Pmp22-F2sN cells; also: nearly all actives have a fitted effect of over 65% in size
# Conditions: S16 Pmp22-F2sN Schwann cells (luciferase reporters placed in the Pmp22 gene) viability, CellTiter-Glo, 24 h; series mostly up to 57.5 µM; activity change, negative = cytotoxicity: at the top concentration
# How it was run: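 Rat S16 Schwann reporter line, 24 h treatment with library compounds delivered at 23 nL per well. Cell viability by CellTiter-Glo luminescence.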
# % is scaled to controls: 0 for no effect and ±100 for the full control effect.
row,SMILES,"activity change, negative = cytotoxicity"
1,COc1ccccc1N1CCN(C(=O)CN2C(=O)COc3ccc(S(=O)(=O)N4CCC(C)CC4)cc32)CC1,inactive: 14.4%
2,Cc1ccc(NC(=O)C2CCN(c3cc(C)nc4c(-c5ccc(Cl)cc5)c(C)nn34)CC2)c(C)c1,inactive: 0.352%
3,COc1ccc(C(=O)CSc2c(C(C)C)cnc3c2c(=O)n(C)c(=O)n3C)cc1,inactive: 4.67%
4,CCOc1ccc(NC(=O)CSc2nc3c(oc4ccccc43)c(=O)n2CCOC)cc1,inactive: 0.39%
5,Cc1ccn2c(=O)cc(COc3ccc(NC(=O)c4ccccc4F)cc3)nc2c1,inactive: -1.27%
6,Cn1ncc2nc(SCC(=O)Nc3ccc(Br)cc3F)n(Cc3ccccc3)c(=O)c21,inactive: -1.9%
7,COc1cc2[nH]c(=O)n(CCCC(=O)N3CCN(c4cccc(C(F)(F)F)c4)CC3)c(=O)c2cc1OC,inactive: 4.97%
8,CC(C)(C)C(=O)NCCc1csc2nc(-c3ccc(F)cc3)nn12,inactive: 2.99%
9,Cc1ccc(NC(=O)C(Cc2c[nH]c3ccccc23)NC(=O)OCC(C)C)cc1 (stereo not given),inactive: -20.4%
10,COc1ccc(/C=C\C(=O)NC2CC(=O)N(c3ccccc3)C2)cc1OC (stereo not given),inactive: -0.124%
11,COc1cc(NC(=O)c2nc(-c3ccncc3)no2)cc(OC)c1OC,inactive: -11.6%
12,Cc1ccc(CN(C(=O)COc2c(C)cccc2C)C2CCS(=O)(=O)C2)o1 (stereo not given),inactive: 0.264%
13,COC(=O)c1nc2n(n1)C(c1cc(OC)ccc1OC)C(C(=O)Nc1ccc(C)cc1C)=C(C)N2 (stereo not given),inactive: -2.7%
14,Cc1ccc2oc3c(c(=O)c2c1)C1(C(=O)N(C)c2ccccc21)N(CCCO)C3=O (stereo not given),inactive: 1.2%
15,COc1ccc2oc(-c3ccc(C)c(NC(=O)COc4cc(C)cc(C)c4)c3)nc2c1,inactive: 5.59%
16,O=C(CCS(=O)(=O)c1cccc2nsnc12)Nc1ccc(F)cc1,inactive: 7.52%
17,Cc1ccc(-c2cc(C(=O)Oc3ccccc3)c3cc(C)ccc3n2)cc1,inactive: -0.0076%
18,COc1ccc2c(c1)c1c(c(=O)n(-c3cccc(Cl)c3)c(=O)n1CC(=O)N1CCCC1)n2C,inactive: -9.84%
19,CCOC(=O)Cn1nc(C)c(NC(=O)COc2ccc(Cl)cc2C)c1C,inactive: -3.77%
20,CCOc1ccccc1NC(=O)Cn1ccn(Cc2ccc(C)cc2)c(=O)c1=O,inactive: -13.7%
21,CCC1CCCCN1CCCNC(=O)CN1C(=O)CSc2ccc(S(=O)(=O)N3CCOCC3)cc21 (stereo not given),inactive: -1.66%
22,Cc1cc(C)c(NC(=O)Nc2ccc3snnc3c2)c(C)c1,inactive: -0.927%
23,Clc1ccccc1CNc1ncnc2c1c(-c1ccccc1)cn2-c1ccccc1,inactive: -14.3%
24,CCC(C)NC(=O)CSc1nc2c(sc3ccccc32)c(=O)n1Cc1ccccc1Cl (stereo not given),inactive: -0.061%

row,SMILES,"activity change, negative = cytotoxicity"
1,Cc1ccc(C)c(CSc2nc3ccncc3n2CC(=O)Nc2ccc(N(C)C)cc2)c1,inactive: -10.9%
2,Cc1cccc2nc(-c3cccc(NS(=O)(=O)c4ccccc4)c3)cn12,inactive: -4.44%
3,CC(=O)c1ccc(NC(=O)COCc2cc(-c3ccco3)on2)cc1,inactive: 14.1%
4,COc1cccc(N2CC(NC(=O)c3cccc(OC)c3OC)CC2=O)c1 (stereo not given),inactive: 10.9%
5,Cc1ccccc1OCc1nnc(SCc2cc(=O)c3cccc(F)c3[nH]2)n1C,inactive: -5.5%
6,COCCCNC(=O)CSc1nc2c(sc3ccccc32)c(=O)n1CCCC(=O)NCCOC,inactive: -0.52%
7,CCOc1ccc(CCNC(=O)CCSCc2ccc(Cl)cc2)cc1OCC,inactive: 2.14%
8,CC(C)Oc1ccc(CNC(=O)c2cccc(NC(=O)N3CCSc4ncccc43)c2)cc1,inactive: -11.6%
9,Cc1cccc(Cc2c(C)nc3nc(SCC(=O)NCc4ccccc4)nn3c2C)c1,inactive: -5.95%
10,CCC(=O)N1CCc2cc(Br)cc(S(=O)(=O)N3CCCC(C(=O)Nc4cccc(F)c4)C3)c21 (stereo not given),inactive: 7.46%
11,CCOc1ccc(NC(=O)c2oc3ccccc3c2NC(=O)c2cc(C)cc(C)c2)cc1,inactive: 15.6%
12,COc1ccc(CCNC(=O)Cn2ncc3c(=O)oc4ccccc4c32)c(OC)c1,inactive: 15.5%
13,COc1ccc(CC(=O)NCc2ccc3c(c2)CCN3C(=O)c2ccc(Cl)cc2)cc1,inactive: -0.125%
14,CCc1ccc2oc(-c3cc(NC(=O)c4cccnc4)cc(C)c3O)nc2c1,inactive: 12.3%
15,CCOC(=O)c1sc(NC(=O)c2cc3nc(-c4ccccc4)cc(C(F)(F)F)n3n2)c(C(=O)OCC)c1C,inactive: 2.92%
16,Cc1cc(C)cc(Oc2c(C(F)(F)F)oc3cc(OCC(=O)NC4CCCCC4)ccc3c2=O)c1,inactive: 2.11%
17,CCOC(=O)c1cc(-c2ccccc2)n(-c2cccc(C(=O)Nc3cc(OC)cc(OC)c3)c2)c1C,inactive: -8.36%
18,O=C(Nc1cccc(Br)c1)N1CCC(CN2CCCCCC2)CC1,inactive: 6.86%
19,COc1cccc(CNC(=O)CN(c2ccc(C(C)C)cc2)S(=O)(=O)c2c(C)noc2C)c1,inactive: 3.69%
20,CCC(C)NC(=O)CCSc1nc(-c2ccc(OC)cc2)cc(C(F)(F)F)n1 (stereo not given),inactive: 15.5%
21,O=C(O)c1cccc(Nc2ncnc3scc(-c4ccccc4)c23)c1,inactive: 3.59%
22,O=C(NCc1ccc(F)cc1)c1cc(-c2ccc(Cl)cc2)n[nH]1,inactive: -1.26%
23,Cc1ccccc1C(=O)Oc1c(Sc2ccccc2)c(C)nn1C(C)(C)C,inactive: -12.5%
24,Cc1ccc(C(=O)Nc2nnc(S(=O)(=O)N3CCc4ccccc43)s2)cc1,inactive: -4.27%

row,SMILES,"activity change, negative = cytotoxicity"
1,COc1ccc(NC(=O)c2cc(CN3CCCC3)on2)cc1Cl,inactive: -0.439%
2,CCCCNC(=O)C1CCC(CNS(=O)(=O)c2ccc(Cl)cc2)CC1 (stereo not given),inactive: 13.4%
3,CCCCOc1cccc(C(=O)N(Cc2cccs2)c2ccc(OC)cc2)c1,inactive: -23.2%
4,CC(=O)NCCn1c(SCC(=O)Nc2ccc(C)cc2)nc2ccccc2c1=O,inactive: -12.5%
5,CC(C)(C)c1ccc(-c2nc(SCC(=O)Nc3ccc(Cl)cc3)[nH]c(=O)c2C#N)cc1,inactive: 6.15%
6,COc1ccc(N2CC(NC(=O)c3ccc(S(=O)(=O)N4CCOCC4)cc3)CC2=O)cc1OC (stereo not given),inactive: 6.55%
7,CCc1cnc2c(c1SCC(=O)c1ccc(OC)cc1)c(=O)n(C)c(=O)n2C,inactive: -8.81%
8,COc1ccccc1CNC(=O)CC(c1ccc(OC)c(OC)c1)N1Cc2ccccc2C1=O (stereo not given),inactive: -0.103%
9,CCCCN(CCCC)C(=O)C1CCN(S(=O)(=O)c2cccc3nsnc23)CC1,inactive: 10.9%
10,CCN(Cc1ccccc1)c1ncnc2c1nnn2C,inactive: -11.5%
11,COc1ccc(OC)c(/C=C/C(=O)Nc2ccc(C(=O)OCCC(C)C)cc2)c1,inactive: 11.4%
12,Cc1ccccc1CN1C(=O)c2ccccc2Sc2ccc(C(=O)NC3CCCC3)cc21,inactive: -5.91%
13,COc1cccc(-n2c(-c3cccc(F)c3)nc3c(cnn3-c3ccc(C)cc3)c2=O)c1,inactive: 10.1%
14,COc1ccc(N2CCN(c3oc(-c4ccc(COc5cccc(C)c5)o4)nc3C#N)CC2)cc1,inactive: -6.77%
15,Cc1ccc(NC(=O)CN(C)S(=O)(=O)c2ccc3[nH]c4c(c3c2)CCCC4)c(Cl)c1,inactive: -2.33%
16,COc1ccc(CC(=O)NCCc2csc3nc(-c4ccccc4F)nn23)cc1,inactive: 13.4%
17,CCCN(C(=O)CCc1nc(-c2ccc(OC)cc2)no1)c1ccccc1F,inactive: 0.0244%
18,CSc1ncc(C(=O)N2CCN(c3cc(Cl)ccc3C)CC2)c(C)n1,inactive: 4.02%
19,Cc1oc(-c2ccccc2F)nc1CS(=O)(=O)CC(=O)NCCc1ccc(Cl)cc1,inactive: 13.7%
20,COc1cc(-c2nc(Cn3nnc(C(=O)Nc4ccc(C)cc4C)c3C)c(C)o2)cc(OC)c1OC,inactive: 19.1%
21,CCN(CCCNC(=O)c1cc2c(Cl)nc3ccccc3c2s1)Cc1ccccc1,inactive: -26.4%
22,Cc1ccc(C)c2sc(N3CCN(C(=O)C(C)(C)C)CC3)nc12,inactive: -0.583%
23,CC1=C(C(=O)Nc2ccc(C)cc2Cl)C2(CCCCCC2)OC1=O,inactive: -6.37%
24,CCC(=O)c1cc2c(cc1NC(=O)c1ccccc1F)OCCO2,inactive: 9.85%

row,SMILES,"activity change, negative = cytotoxicity"
1,CCOc1ccc(CCNC(=O)c2ccc(-n3c(C)cc4c3CCC(C)C4)cc2)cc1OCC (stereo not given),inactive: -0.279%
2,COc1ccc(NC(=O)Cn2ncc3c2-c2ccccc2OC3)cc1Cl,inactive: -2.53%
3,COc1ccccc1C(=O)Nc1ccc(OCc2cc(=O)n3ccsc3n2)cc1,inactive: 19.1%
4,O=C(CSc1nc2c([nH]c3ccccc32)c(=O)n1-c1ccccc1)Nc1ccc2c(c1)OCCO2,inactive: -16.7%
5,Cc1ccc(-c2noc(-c3ccccc3NC(=O)C3CC(=O)N(c4ccccc4C)C3)n2)cc1 (stereo not given),inactive: 13.5%
6,O=C(NCCc1nc2ccccc2n1Cc1ccc(Cl)cc1Cl)c1ccco1,inactive: 5.18%
7,CCn1ccc2c(OCC(=O)NCc3ccc(F)cc3)cccc2c1=O,inactive: 4.21%
8,N#Cc1ccc(C(=O)Nc2ccc3c(c2)N(C2CCCC2)C(=O)c2ccccc2S3)cc1,inactive: -14.8%
9,CC(C)Sc1ncc(Cl)c(C(=O)N(Cc2ccc(N(C)C)cc2)C2CCS(=O)(=O)C2)n1 (stereo not given),inactive: -3.72%
10,CCc1nn(CC(=O)Nc2ccc(N(CC)CC)cc2C)c(=O)c2cc3sccc3n12,inactive: 10.4%
11,CCOc1ccc(C2C(C(=O)Nc3ccccc3)=C(C)Nc3nc(SCc4cc(C)ccc4C)nn32)cc1 (stereo not given),inactive: 7.33%
12,Cc1cc(C)c2nc(N(Cc3cccnc3)C(=O)c3cccs3)sc2c1,inactive: -27.6%
13,CC(C)Cn1c(=O)c2ccccc2n2c(CCC(=O)NC(C)c3ccccc3)nnc12 (stereo not given),inactive: 12.8%
14,CN(C)c1ccc(/C=C(\C#N)c2nc(-c3ccc(Cl)c(Cl)c3)cs2)cc1,inactive: 3.58%
15,COc1cc(NC(=O)COCc2cc(-c3ccc4c(c3)OCO4)on2)cc(OC)c1,inactive: 27%
16,CCN(CC)C(=O)c1sc2c(c1C)c(=O)n(-c1ccc(OC)cc1OC)c(=O)n2CC(=O)c1ccc(Cl)cc1,inactive: -2.87%
17,CCn1cc(S(=O)(=O)c2ccccc2)c(=O)c2cc(F)c(N3CCN(c4ccccc4)CC3)cc21,inactive: -14.7%
18,COc1cc(NC(=O)c2oc3c(c2C)-c2nn(Cc4cccc(Cl)c4)cc2CC3)cc(OC)c1,inactive: 15%
19,Cc1ccc(-n2c(=O)c3c(cnn3C)n(Cc3ccccc3F)c2=O)cc1,inactive: 0.462%
20,Cn1c2ccccc2c2cnn(CC(=O)Nc3ccccc3C(F)(F)F)c(=O)c21,inactive: 11.8%
21,O=C(C1CCN(S(=O)(=O)c2ccc(Br)s2)CC1)N1CCN(c2ccccc2)CC1,inactive: 1.3%
22,CCc1ccc(-c2nn(CC(=O)NCc3ccccc3)c3c2cnc2ccc(F)cc23)cc1,inactive: -3.11%
23,COc1ccc(OCC(=O)NCc2ccc3c(c2)CCN3C(=O)c2ccc(F)cc2)cc1,inactive: -15.4%
